The results in this text go back to PMC5919408.

The chains behind the UniProt entries cited, without tags or fusion partners.
UniProt P35169: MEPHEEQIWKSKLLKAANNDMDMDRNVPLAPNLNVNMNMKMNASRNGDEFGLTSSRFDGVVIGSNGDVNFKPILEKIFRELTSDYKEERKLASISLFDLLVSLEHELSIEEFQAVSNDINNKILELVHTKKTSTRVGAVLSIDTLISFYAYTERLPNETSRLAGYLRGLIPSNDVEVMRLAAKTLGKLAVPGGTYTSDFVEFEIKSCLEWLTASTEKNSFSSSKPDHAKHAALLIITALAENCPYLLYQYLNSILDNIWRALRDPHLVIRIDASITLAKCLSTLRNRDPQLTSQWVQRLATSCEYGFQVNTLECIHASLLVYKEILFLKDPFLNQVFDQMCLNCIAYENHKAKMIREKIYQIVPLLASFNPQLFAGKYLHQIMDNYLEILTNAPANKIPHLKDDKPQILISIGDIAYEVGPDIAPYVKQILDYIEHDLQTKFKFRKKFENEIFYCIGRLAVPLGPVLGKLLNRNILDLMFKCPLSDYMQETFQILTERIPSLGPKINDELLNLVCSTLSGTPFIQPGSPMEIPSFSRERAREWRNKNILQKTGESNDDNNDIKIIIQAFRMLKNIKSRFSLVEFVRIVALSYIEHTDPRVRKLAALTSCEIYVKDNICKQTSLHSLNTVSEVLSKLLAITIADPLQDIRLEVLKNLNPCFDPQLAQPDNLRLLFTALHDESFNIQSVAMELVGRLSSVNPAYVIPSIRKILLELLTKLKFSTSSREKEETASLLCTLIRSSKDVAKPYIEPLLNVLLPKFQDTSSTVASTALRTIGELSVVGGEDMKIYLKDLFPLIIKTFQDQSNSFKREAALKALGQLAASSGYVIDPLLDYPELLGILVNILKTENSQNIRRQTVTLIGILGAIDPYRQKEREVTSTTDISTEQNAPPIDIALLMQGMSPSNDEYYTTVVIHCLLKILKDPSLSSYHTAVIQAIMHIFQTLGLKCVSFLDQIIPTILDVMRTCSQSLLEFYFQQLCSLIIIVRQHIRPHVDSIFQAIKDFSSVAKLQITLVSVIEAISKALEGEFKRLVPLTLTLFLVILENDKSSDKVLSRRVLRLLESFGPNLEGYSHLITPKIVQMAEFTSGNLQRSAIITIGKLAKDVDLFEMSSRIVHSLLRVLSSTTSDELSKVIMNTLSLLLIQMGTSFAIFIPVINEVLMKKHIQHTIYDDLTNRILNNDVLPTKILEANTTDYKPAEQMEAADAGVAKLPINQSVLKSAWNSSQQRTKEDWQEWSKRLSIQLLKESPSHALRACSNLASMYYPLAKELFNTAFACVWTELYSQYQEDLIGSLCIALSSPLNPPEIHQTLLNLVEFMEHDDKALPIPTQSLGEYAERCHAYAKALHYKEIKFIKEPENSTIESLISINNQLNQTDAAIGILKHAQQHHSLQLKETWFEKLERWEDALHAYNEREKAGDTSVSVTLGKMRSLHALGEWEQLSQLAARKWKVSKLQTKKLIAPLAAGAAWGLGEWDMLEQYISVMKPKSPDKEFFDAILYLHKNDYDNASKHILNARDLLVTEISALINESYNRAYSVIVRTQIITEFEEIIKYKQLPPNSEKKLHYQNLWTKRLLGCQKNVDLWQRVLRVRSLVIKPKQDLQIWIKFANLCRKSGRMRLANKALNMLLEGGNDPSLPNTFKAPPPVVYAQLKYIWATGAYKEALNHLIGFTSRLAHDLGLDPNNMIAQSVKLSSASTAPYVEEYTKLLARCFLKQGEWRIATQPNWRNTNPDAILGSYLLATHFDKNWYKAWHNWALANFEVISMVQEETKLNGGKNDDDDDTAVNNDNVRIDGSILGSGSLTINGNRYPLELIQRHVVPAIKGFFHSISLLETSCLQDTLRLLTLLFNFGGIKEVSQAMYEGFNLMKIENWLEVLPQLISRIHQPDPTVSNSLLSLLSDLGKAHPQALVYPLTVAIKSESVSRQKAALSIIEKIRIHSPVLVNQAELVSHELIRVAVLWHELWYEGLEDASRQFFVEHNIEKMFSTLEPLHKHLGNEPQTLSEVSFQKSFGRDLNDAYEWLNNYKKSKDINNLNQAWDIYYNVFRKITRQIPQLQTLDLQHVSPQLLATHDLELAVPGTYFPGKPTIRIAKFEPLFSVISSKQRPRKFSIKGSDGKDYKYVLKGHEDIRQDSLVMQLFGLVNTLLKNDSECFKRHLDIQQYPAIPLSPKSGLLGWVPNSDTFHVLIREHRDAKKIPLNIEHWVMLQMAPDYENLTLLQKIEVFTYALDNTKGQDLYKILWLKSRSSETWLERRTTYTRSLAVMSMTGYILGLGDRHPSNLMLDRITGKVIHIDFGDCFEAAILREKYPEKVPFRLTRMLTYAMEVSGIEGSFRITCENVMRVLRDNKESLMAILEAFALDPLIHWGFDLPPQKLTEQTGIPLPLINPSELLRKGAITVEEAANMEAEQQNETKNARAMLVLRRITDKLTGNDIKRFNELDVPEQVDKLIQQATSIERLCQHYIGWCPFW

The target of test [1] is T1, GFP-Pib2 (S. cerevisiae) (UniProt P53191).
T1 sequence: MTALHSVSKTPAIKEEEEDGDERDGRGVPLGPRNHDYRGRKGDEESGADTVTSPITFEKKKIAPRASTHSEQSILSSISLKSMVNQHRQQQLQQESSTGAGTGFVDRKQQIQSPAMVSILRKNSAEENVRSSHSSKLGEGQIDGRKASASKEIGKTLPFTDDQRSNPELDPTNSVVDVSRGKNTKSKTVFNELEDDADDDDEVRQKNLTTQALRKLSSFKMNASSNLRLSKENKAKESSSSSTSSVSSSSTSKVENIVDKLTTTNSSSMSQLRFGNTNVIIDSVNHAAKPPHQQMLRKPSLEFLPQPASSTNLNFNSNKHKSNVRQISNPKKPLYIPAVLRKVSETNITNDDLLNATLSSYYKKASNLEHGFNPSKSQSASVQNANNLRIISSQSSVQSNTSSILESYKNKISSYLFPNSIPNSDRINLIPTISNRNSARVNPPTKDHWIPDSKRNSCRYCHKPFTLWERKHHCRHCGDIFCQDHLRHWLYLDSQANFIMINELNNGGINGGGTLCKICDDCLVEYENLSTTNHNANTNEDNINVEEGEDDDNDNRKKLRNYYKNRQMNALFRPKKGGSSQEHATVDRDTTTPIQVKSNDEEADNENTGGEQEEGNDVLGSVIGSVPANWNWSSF
Put plainly: co-IP; GFP-Pib2 precipitated with magnetic GFP-Trap-M beads from yeast cell extracts; TAP-A buffer (50 mM Tris-HCl pH 8.0, 150 mM NaCl, 10% glycerol, 1 mM DTT, 1 mM EDTA) with 0.2% Triton X-100, 4°C; western blot; in Fig 5 and S5 Fig L-glutamine, D-glutamine or L-leucine added to all buffers. Background: A western blot detects proteins with antibodies after separation by electrophoresis.

Test [2] has as its target T2, Gtr1-TAP (S. cerevisiae) (UniProt Q00582).
T2 sequence: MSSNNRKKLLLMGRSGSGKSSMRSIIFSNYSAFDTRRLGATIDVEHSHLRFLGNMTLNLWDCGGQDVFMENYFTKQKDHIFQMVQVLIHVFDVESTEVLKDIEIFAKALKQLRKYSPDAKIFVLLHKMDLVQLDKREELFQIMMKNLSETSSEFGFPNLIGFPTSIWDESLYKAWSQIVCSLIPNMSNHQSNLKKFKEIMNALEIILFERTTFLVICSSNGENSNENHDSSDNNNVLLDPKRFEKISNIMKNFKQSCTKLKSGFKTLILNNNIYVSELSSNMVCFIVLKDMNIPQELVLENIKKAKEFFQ
Put plainly: co-IP; Gtr1-TAP precipitated with IgG-Dynabeads from extracts of cells with an additional copy of GTR1-TAP (pRS316-GTR1-TAP); Rag buffer (40 mM Na-HEPES pH 7.4, 5 mM MgCl2, 150 mM NaCl) instead of TAP-A buffer; western blot.

The target of test [3] is T3, GFP-Pib2^165-635 (S. cerevisiae) (UniProt P53191).
T3 sequence: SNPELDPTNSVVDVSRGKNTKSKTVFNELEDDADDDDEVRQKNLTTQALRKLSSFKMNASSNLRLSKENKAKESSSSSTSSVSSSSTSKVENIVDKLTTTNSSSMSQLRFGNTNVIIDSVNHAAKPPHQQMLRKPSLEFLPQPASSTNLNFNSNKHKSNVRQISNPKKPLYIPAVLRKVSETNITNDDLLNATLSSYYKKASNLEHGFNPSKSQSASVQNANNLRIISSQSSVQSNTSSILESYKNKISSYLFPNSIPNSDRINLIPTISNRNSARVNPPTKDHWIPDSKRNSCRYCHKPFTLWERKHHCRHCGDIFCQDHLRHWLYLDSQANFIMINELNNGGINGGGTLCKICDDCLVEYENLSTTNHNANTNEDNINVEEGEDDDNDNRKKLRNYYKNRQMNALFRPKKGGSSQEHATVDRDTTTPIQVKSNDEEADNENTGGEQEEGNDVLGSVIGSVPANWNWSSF
The test can be described thus: co-IP; truncation mutants of GFP-Pib2 in Δpib2 cells precipitated with GFP-Trap; 60 mM glutamine in all buffers; western blot.

Test [4] has as its target T4, GFP-Pib2^1-620 (S. cerevisiae) (UniProt P53191).
T4 sequence: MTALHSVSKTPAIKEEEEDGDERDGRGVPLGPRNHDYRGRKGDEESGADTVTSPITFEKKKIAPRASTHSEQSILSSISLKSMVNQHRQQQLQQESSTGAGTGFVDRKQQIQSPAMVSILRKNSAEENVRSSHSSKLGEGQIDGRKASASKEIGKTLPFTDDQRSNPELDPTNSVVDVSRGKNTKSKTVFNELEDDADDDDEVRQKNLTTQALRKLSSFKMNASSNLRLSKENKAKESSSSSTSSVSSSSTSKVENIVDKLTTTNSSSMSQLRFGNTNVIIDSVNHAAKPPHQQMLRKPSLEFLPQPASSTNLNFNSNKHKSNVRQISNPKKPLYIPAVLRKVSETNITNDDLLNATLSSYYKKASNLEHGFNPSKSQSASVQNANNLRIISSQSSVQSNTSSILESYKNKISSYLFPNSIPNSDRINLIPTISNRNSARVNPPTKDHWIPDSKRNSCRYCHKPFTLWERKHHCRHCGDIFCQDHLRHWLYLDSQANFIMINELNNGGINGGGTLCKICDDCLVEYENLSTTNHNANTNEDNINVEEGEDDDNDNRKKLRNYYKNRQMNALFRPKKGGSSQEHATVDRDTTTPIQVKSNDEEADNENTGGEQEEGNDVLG
The description is as above.

Test [5] addresses T5, GFP-Pib2^304-635 (S. cerevisiae) (UniProt P53191).
T5 sequence: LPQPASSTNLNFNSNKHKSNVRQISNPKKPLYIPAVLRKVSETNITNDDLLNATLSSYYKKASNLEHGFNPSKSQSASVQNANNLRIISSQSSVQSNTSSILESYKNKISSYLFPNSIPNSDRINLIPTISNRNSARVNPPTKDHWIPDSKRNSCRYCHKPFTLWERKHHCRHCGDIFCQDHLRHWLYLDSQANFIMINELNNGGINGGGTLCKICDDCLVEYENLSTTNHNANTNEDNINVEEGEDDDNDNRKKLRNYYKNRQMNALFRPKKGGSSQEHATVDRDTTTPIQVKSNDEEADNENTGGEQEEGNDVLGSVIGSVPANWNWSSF
Described as above.

Test [6] has as its target T2, Gtr1-TAP (S. cerevisiae). Put plainly: co-IP; Gtr1-TAP precipitated with rabbit IgG-coupled Dynabeads from yeast cell extracts; TAP-A buffer with 0.2% Triton X-100, 4°C; western blot.
Test [7] has as its target T1, GFP-Pib2 (S. cerevisiae). The test can be described thus: co-IP; GFP-Pib2 precipitated with GFP-Trap from extracts of cells with an additional copy of GTR1-TAP (pRS316-GTR1-TAP); Rag buffer (40 mM Na-HEPES pH 7.4, 5 mM MgCl2, 150 mM NaCl) instead of TAP-A buffer; western blot.
The target in test [8] is GFP-Tor1 (S. cerevisiae) (UniProt P35169). Put plainly: co-IP; GFP-Tor1 precipitated with GFP-Trap from extracts of cells expressing GFP-Tor1 and TAP-Pib2; cells grown in YPD, shifted to nitrogen-free YMM, glutamine added at various concentrations; western blot.

No constants are given. Whether binding was seen depends on the method and setting. Binding seen in cells or lysates may run through a third protein. Some results given as binding are weak or reduced against the parent protein; the word gives no strength. For part of these data: Where a sequence is shown, tags or fusion partners need not be part of it.

Consider “Tor1 (endogenous) (from UniProt P35169 1-2470)”, for which the binding result in test [1], in test [2], in test [3], in test [4], in test [5] and in test [6] was “binds” each time. Also, the binding result in test [7] is listed as “binds”.

B1: Gtr1-TAP (protein, UniProt Q00582 1-310)
chain: T2 sequence
For the molecule B1, the binding entry in test [1] and in test [7] was “no binding” each time.

B2: TAP-Pib2 (protein, UniProt P53191 1-635)
chain: T1 sequence
With B2, in test [8], the binding result is “binds”.

B3: GFP-Pib2 (protein, UniProt P53191 1-635)
chain: T1 sequence
As for B3, the binding entry in test [2] and in test [6] was “no binding” in each case.
